Test results reported in the RNAGym collection of RNA variant scans (doi:10.1093/nar/gkz1192).
Read counts are not given, so values of variants with three or more changes are uncertain.

B1: CPEB3 Ribozyme (parent)
chain: UAACAGGGGGCCACAGCAGAAGCGUUCACGUCGCAGCCCCUGUCAGAUUCUGGUGAAUCUGCGAAUUCUGCUGUAUAUCUC

Variants of: B1
Assay: self-cleavage, relative activity (ratio to wild type); higher = more cleavage; in vitro, sequencing
Method in brief: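 Libraries of CPEB3 self-cleaving ribozyme mutants came from rounds of error-prone PCR and carried barcodes, which DNA sequencing matched to variants. In vitro transcription used T7 RNA polymerase at 37°C for 5 hours, with a further 15 min in DNase I before EDTA stopped the reaction; the ribozymes cleaved during both steps. The RNA was reverse transcribed with template switching and sequenced on Illumina. Relative activity is the cleaved/total read fraction of a variant divided by that of the unmutated ribozyme, averaged over three batches with at least 5 reads.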
Variant UAACAGGGGGCCACAGCAGAAGCGCUCACGUCGCAGCCCCUGUCAGAUUCCGGUGAAACUGCGAAUUCUGCUGUAUAUCUC [U25C U51C U58A] has a self-cleavage of 0.2.
With UAACAGGGGGCCACAGCAGAAGCGCUCACGUCGCAGCCCCUGUCAGAUUCCGGUGAAGCUGCGAAUUCUGCUGUAUAUCUC [U25C U51C U58G] the self-cleavage was 0.16.
UAACAGGGGGCCACAGCAGAAGCGCUCACGUCGCAGCCCCUGUCAGAUUCCGGUGAAUCAGCGAAUUCCGCUGUAUAUCUC [U25C U51C U60A U69C] gave a self-cleavage of 0.11.
Work on UAACAGGGGGCCACAGCAGAAGCGCUCACGUCGCAGCCCCUGUCAGAUUCCGGUGAAUCCGCGAAUUCUGCUGUAUAUCUC [U25C U51C U60C] yielded a self-cleavage of 0.08.
Variant UAACAGGGGGCCACAGCAGAAGCGCUCACGUCGCAGCCCCUGUCAGAUUCCGGUGAAUCUGCGAAUCCUGCUGUAUAUCUC [U25C U51C U67C] has a self-cleavage of 0.13.
Work on UAACAGGGGGCCACAGCAGAAGCGCUCACGUCGCAGCCCCUGUCAGAUUCCGGUGAAUCUGCGAAUUCCGCUGUAUAUCUC [U25C U51C U69C] yielded a self-cleavage of 0.2.
With UAACAGGGGGCCACAGCAGAAGCGCUCACGUCGCAGCCCCUGUCAGAUUCCGGUGAAUCUGCGAAUUCCGCCGUAUAUCUC [U25C U51C U69C U72C] the self-cleavage was 0.08.
In the case of UAACAGGGGGCCACAGCAGAAGCGCUCACGUCGCAGCCCCUGUCAGAUUCCGGUGAAUCUGCGAAUUCCGCUGUAUACCUC [U25C U51C U69C U78C], the self-cleavage is reported as 0.12.
Work on UAACAGGGGGCCACAGCAGAAGCGCUCACGUCGCAGCCCCUGUCAGAUUCGGGUGAAUCUGCGAACUCUGCUGUAUAUCUC [U25C U51G U66C] yielded a self-cleavage of 0.07.
Variant UAACAGGGGGCCACAGCAGAAGCGCUCACGUCGCAGCCCCUGUCAGAUUCGGGUGAAUCUGCGAAUCCUGCUGUAUAUCUC [U25C U51G U67C] has a self-cleavage of 0.08.
UAACAGGGGGCCACAGCAGAAGCGCUCACGUCGCAGCCCCUGUCAGAUUCGGGUGAAUCUGCGAAUUCUGCCGUAUAUCUC [U25C U51G U72C] gave a self-cleavage of 0.21.
Variant UAACAGGGGGCCACAGCAGAAGCGCUCACGUCGCAGCCCCUGUCAGAUUCUGGAGGAUCUGCGAAUUCUGCUGUAUAUCUC [U25C U54A A56G] has a self-cleavage of 0.2.
UAACAGGGGGCCACAGCAGAAGCGCUCACGUCGCAGCCCCUGUCAGAUUCUGGAGUAUCUGCGAAUUCCGCUGUAUAUCUC [U25C U54A A56U U69C] gave a self-cleavage of 0.07.
UAACAGGGGGCCACAGCAGAAGCGCUCACGUCGCAGCCCCUGUCAGAUUCUGGAGAAUCAGCGAAUUCUGCGGUAUAUCCC [U25C U54A U60A U72G U80C] gave a self-cleavage of 0.21.
With UAACAGGGGGCCACAGCAGAAGCGCUCACGUCGCAGCCCCUGUCAGAUUCUGGAGAAUCUGCGAACUCUGCUGUAUAUCUC [U25C U54A U66C] the self-cleavage was 0.18.
Work on UAACAGGGGGCCACAGCAGAAGCGCUCACGUCGCAGCCCCUGUCAGAUUCUGGAGAAUCUGCGAAUUCUGCCGUAUAUCUC [U25C U54A U72C] yielded a self-cleavage of 0.27.
For UAACAGGGGGCCACAGCAGAAGCGCUCACGUCGCAGCCCCUGUCAGAUUCUGGCGCAUCUACGAAUUCUGCUGUAUAUCUC [U25C U54C A56C G61A], the self-cleavage was 0.07.
With UAACAGGGGGCCACAGCAGAAGCGCUCACGUCGCAGCCCCUGUCAGAUUCUGGCGAGUCUGCGAAUUCUGCUGUAUAUCUC [U25C U54C A57G] the self-cleavage was 0.45.
Variant UAACAGGGGGCCACAGCAGAAGCGCUCACGUCGCAGCCCCUGUCAGAUUCUGGCGAAUCUGCGUAUCCUGCUGUAUAUCAC [U25C U54C A64U U67C U80A] has a self-cleavage of 0.14.
For UAACAGGGGGCCACAGCAGAAGCGCUCACGUCGCAGCCCCUGUCAGAUUCUGGCGAAUCUGCGACUUCUGCUGUAUAUCUC [U25C U54C A65C], the self-cleavage was 0.36.
With UAACAGGGGGCCACAGCAGAAGCGCUCACGUCGCAGCCCCUGUCAGAUUCUGGCGAAUCUGCGAUUUCUGCUGUAUAUCUC [U25C U54C A65U] the self-cleavage was 0.1.
With UAACAGGGGGCCACAGCAGAAGCGCUCACGUCGCAGCCCCUGUCAGAUUCUGGCGAAUCUGCGAAUUCAGCUGUAUAUCUC [U25C U54C U69A] the self-cleavage was 0.11.
Variant UAACAGGGGGCCACAGCAGAAGCGCUCACGUCGCAGCCCCUGUCAGAUUCUGGGGGAUCUGCGAAUUCUGCUGUAUAUCUC [U25C U54G A56G] has a self-cleavage of 0.09.
For UAACAGGGGGCCACAGCAGAAGCGCUCACGUCGCAGCCCCUGUCAGAUUCUGGGGAAUCUGAGAAUUCUGCUGUAUAUCUC [U25C U54G C62A], the self-cleavage was 0.17.
In the case of UAACAGGGGGCCACAGCAGAAGCGCUCACGUCGCAGCCCCUGUCAGAUUCUGGGGAAUCUGCGAAUUCUGCUGUACAUCUC [U25C U54G U76C], the self-cleavage is reported as 0.41.
UAACAGGGGGCCACAGCAGAAGCGCUCACGUCGCAGCCCCUGUCAGAUUCUGGUGAAACUGCGAAUCCUGCUGUAUAUCUC [U25C U58A U67C] gave a self-cleavage of 0.13.
With UAACAGGGGGCCACAGCAGAAGCGCUCACGUCGCAGCCCCUGUCAGAUUCUGGUGAAACUGCGAAUUCUGCUGUAUAUCCC [U25C U58A U80C] the self-cleavage was 0.09.
Work on UAACAGGGGGCCACAGCAGAAGCGCUCACGUCGCAGCCCCUGUCAGAUUCUGGUGAACCUGCGAGUUCUGCUGUAUACCCC [U25C U58C A65G U78C U80C] yielded a self-cleavage of 0.17.
For UAACAGGGGGCCACAGCAGAAGCGCUCACGUCGCAGCCCCUGUCAGAUUCUGGUGAACCUGCGAUUUCUGCUGUAUACCUC [U25C U58C A65U U78C], the self-cleavage was 0.1.
Work on UAACAGGGGGCCACAGCAGAAGCGCUCACGUCGCAGCCCCUGUCAGAUUCUGGUGAACCUGCGAAUUAUGCUGGAUAUCUC [U25C U58C C68A U74G] yielded a self-cleavage of 0.31.
UAACAGGGGGCCACAGCAGAAGCGCUCACGUCGCAGCCCCUGUCAGAUUCUGGUGAACCUGCAAAUUCUGCUGAAUAUCCC [U25C U58C G63A U74A U80C] gave a self-cleavage of 0.17.
For UAACAGGGGGCCACAGCAGAAGCGCUCACGUCGCAGCCCCUGUCAGAUUCUGGUGAACCUGCGAAUCCUGCUGUAUAUCUC [U25C U58C U67C], the self-cleavage was 0.14.
For UAACAGGGGGCCACAGCAGAAGCGCUCACGUCGCAGCCCCUGUCAGAUUCUGGUGAACCUGCGAAUUCUGCUGCAUAUCUC [U25C U58C U74C], the self-cleavage was 0.44.
For UAACAGGGGGCCACAGCAGAAGCGCUCACGUCGCAGCCCCUGUCAGAUUCUGGUGAACCUGCGAAUUCUGCUGUACAUCUC [U25C U58C U76C], the self-cleavage was 0.16.
